Test results taken from publication PMC4474922, “Constitutive Activity in an Ancestral Form of Abl Tyrosine Kinase” (PLoS ONE, 2015).

Substrate: Nc1ncnc2c1ncn2[C@@H]1O[C@H](COP(=O)(O)OP(=O)(O)OP(=O)(O)O)[C@@H](O)[C@H]1O
Assay: Km (ATP) by continuous spectrophotometric kinase assay
Format: biochemical, Homo sapiens
Conditions: Mg2+

B1: human Abl (Homo sapiens) (protein)
chain: MLEICLKLVGCKSKKGLSSSSSCYLEEALQRPVASDFEPQGLSEAARWNSKENLLAGPSE[about 60 residues left out here]LEKHSWYHGPVSRNAAEYLLSSGINGSFLVRESESSPGQRSISLRYEGRVYHYRINTASDGKLYVSSESRFNTLAELVHHHSTVADGLITTLHYPAPKRNKPTVYGVSPNYDKWEMERTDITMKHKLGGGQYGEVYEGVWKKYSLTVAVKTLKEDTMEVEEFLKEAAVMKEIKHPNLVQLLGVCTREPPFYIITEFMTYGNLLDYLRECNRQEVNAVVLLYMATQISSAMEYLEKKNFIHRDLAARNCLVGENHLVKVADFGLSRLMTGDTYTAHAGAKFPIKWTAPESLAYNKFSIKSDVWAFGVLLWEIATYGMSPYPGIDLSQVYELLEKDYRMERPEGCPEKVYELMRACWQWNPSDRPSFAEIHQAFETMFQESSISDEVEKELGKQGVRGAVSTLLQAPELPTKTRTSRRAAEHRDTTDVPEMPHSKGQGESDPLDHEPAVSPLLPRKERGPPEGGLNEDERLLPKDKKTNLFSALIKKKKKTAPTPPKRSSSFREMDGQPERRGAGEEEGRDISNGALAFTPLDTADPAKSPKPSNGAGVPNGALRESGGSGFRSPHLWKKSSTLTSSRLATGEEEGGGSSSKRFLRSCSASCVPHGAKDTEWRSVTLPRDLQSTGRQFDSSTFGGHKSEKPALPRKRAGENRSDQVTRGTVTPPPRLVKKNEEAADEVFKDIMESSPGSSPPNLTPKPLRRQVTVAPASGLPHKEEAGKGSALGTPAAAEPVTPTSKAGSGAPGGTSKGPAEESRVRRHKHSSESPGRDKGKLSRLKPAPPPPPAASAGKAGGKPSQSPSQEAAGEAVLGAKTKATSLVDAVNSDAAKPSQPGEGLKKPVLPATPKPQSAKPSGTPISPAPVPSTLPSASSALAGDQPSSTAFIPLISTRVSLRKTRQPPERIASGAITKGVVLDSTEALCLAISRNSEQMASHSAVLEAGKNLYTFCVSYVDSIQQMRNKFAFREAINKLENNLRELQICPATAGSGPAATQDFSKLLSSVKEISDIVQR
  Km: 32 µM
